Measurements published in the antibiotic and cytotoxicity screens of Wong et al. (2023).
Some of the results follow.

test system: S. aureus RN4220; experiment: growth inhibition call (relative growth <= 0.2); details: 50 µM

Growth inhibition call, inactive:
CC(=O)N1CCC[C@H](C(=O)O)C1
C[C@@H]1CN([C@H](C)CO)C(=O)c2cc(NC(=O)Nc3ccc(F)cc3)ccc2O[C@@H]1CN(C)CC1CCCCC1
C[C@H](CO)N1C[C@H](C)[C@@H](CN(C)S(C)(=O)=O)Oc2c(NC(=O)CCCCCC(=O)Nc3ccccc3N)cccc2C1=O
C[C@@H]1CCCCO[C@H](CN(C)C(=O)Nc2cccc3ccccc23)[C@@H](C)CN([C@H](C)CO)C(=O)c2cc(NC(=O)Nc3cccc4ccccc34)ccc2O1
C[C@@H]1CN([C@H](C)CO)C(=O)Cc2cc(NS(=O)(=O)c3ccc(Cl)cc3)ccc2O[C@H]1CN(C)S(C)(=O)=O
C[C@@H]1CN([C@@H](C)CO)C(=O)c2ccccc2-c2ccccc2CO[C@@H]1CN(C)C(=O)c1cc(Cl)cc(Cl)c1
Cn1cnc(S(=O)(=O)N2C[C@H](O)COC[C@H]3O[C@@H](CC(=O)NCc4cc(F)cc(F)c4)CC[C@@H]32)c1
CCS(=O)(=O)Nc1ccc2c(c1)C(=O)N(C)[C@@H]1CC[C@H](CC(=O)N[C@H]3CCN(Cc4ccccc4)C3)O[C@@H]1CO2
Cc1noc(C)c1S(=O)(=O)Nc1ccc2c(c1)C(=O)N([C@H](C)CO)C[C@H](C)[C@@H](CN(C)C(=O)Nc1cccc3ccccc13)OCCCC[C@@H](C)O2
C[C@H](CO)N1C[C@H](C)[C@@H](CN(C)Cc2ccc(C(F)(F)F)cc2)OCCCC[C@H](C)Oc2ccc(NC(=O)CCCN(C)C)cc2C1=O
C[C@@H]1CN([C@H](C)CO)C(=O)c2cc(NS(=O)(=O)c3ccc(F)cc3)ccc2O[C@@H](C)CCCCO[C@@H]1CN(C)S(=O)(=O)c1ccc(Cl)cc1
CN(C)CC(=O)N1CC2(C1)[C@H](c1ccccc1)[C@H](CO)N2S(C)(=O)=O
C=CC[C@@H](CC(=O)N[C@@H](CO)Cc1ccccc1)C(=O)N1CCC[C@@H]1COC(=O)[C@@H](CC=C)NC(=O)OCC1c2ccccc2-c2ccccc21
Cc1ccc(S(=O)(=O)Nc2cccc3c2O[C@H](CN(C)Cc2ccc(Oc4ccccc4)cc2)[C@@H](C)CN([C@H](C)CO)C3=O)cc1
O=C1CCOCCN1
CCS(=O)(=O)N1CC[C@]2(CC1)CN(Cc1ccc3c(c1)OCO3)[C@@H](CO)c1[nH]c3cc(ccc3c12)OC
C[C@@H]1CN([C@H](C)CO)C(=O)c2cc(NC(=O)Cn3cnnn3)ccc2O[C@H]1CN(C)Cc1ccc(Cl)c(Cl)c1
C[C@@H]1CCCCO[C@H](CN(C)Cc2ccc(Cl)c(Cl)c2)[C@@H](C)CN([C@@H](C)CO)C(=O)c2cc(N(C)C)ccc2O1
[N-]=[N+]=NCc1ccccc1C[C@@]1(C(=O)N2CCCCC2)N=C(c2ccc(OCCCO)cc2)O[C@@H]1c1ccccc1
C[C@@H]1CN([C@@H](C)CO)C(=O)c2cccc(NC(=O)Nc3cccc4ccccc34)c2O[C@H]1CN(C)S(=O)(=O)c1ccccc1F
CN(C)C(=O)C[C@H]1CC[C@H](NC(=O)C2CCOCC2)[C@H](CO)O1
O=S1(=O)C[C@H](NC[C@H]2C[C@@H]3C=C[C@H]2C3)[C@@H](O)C1
Cc1ccc(S(=O)(=O)Nc2cccc3c2O[C@@H](CN(C)Cc2ccc(Cl)c(Cl)c2)[C@@H](C)CN([C@@H](C)CO)C3=O)cc1
CC12CCC3c4ccc(O)cc4CCC3C1CCC2=O (stereo not given)
COc1ccc(NC(=O)Nc2ccc3c(c2)C(=O)N([C@H](C)CO)C[C@@H](C)[C@@H](CN(C)S(=O)(=O)c2cccs2)OCCCC[C@H](C)O3)cc1
C[C@H]1CN([C@@H](C)CO)C(=O)c2cccc(NC(=O)Nc3ccccc3)c2O[C@@H]1CN(C)Cc1ccc(C(F)(F)F)cc1
Cc1noc(C)c1NC(=O)Nc1ccc2c(c1)C(=O)N([C@H](C)CO)C[C@H](C)[C@H](CN(C)C(=O)C1CCCCC1)OCCCC[C@@H](C)O2
CNC(=O)C(=O)NC[C@H]1CCCN1S(=O)(=O)c1cccs1
Cc1cc(=O)n2c(C)nnc2[nH]1
C[C@@H]1CN([C@H](C)CO)S(=O)(=O)c2ccc(C#C[C@@H](C)O)cc2O[C@@H]1CN(C)C(=O)C1CCCCC1
COc1ccc(S(=O)(=O)Nc2cccc3c2O[C@@H](CN(C)S(=O)(=O)c2cn(C)cn2)[C@H](C)CN([C@@H](C)CO)C3=O)cc1
C[C@@H]1CN([C@@H](C)CO)C(=O)c2cc(NC(=O)Nc3ccc(F)cc3)ccc2O[C@H]1CN(C)S(C)(=O)=O
COCC(=O)N(C)C[C@H]1Oc2cc(C#Cc3ccccc3)ccc2S(=O)(=O)N([C@H](C)CO)C[C@H]1C
Cc1ccc(S(=O)(=O)N(C)C[C@@H]2Oc3ccc(NS(=O)(=O)c4cn(C)cn4)cc3CC(=O)N([C@H](C)CO)C[C@H]2C)cc1
C[C@@H]1CN([C@@H](C)CO)C(=O)c2cc(NS(=O)(=O)c3cccs3)ccc2O[C@@H](C)CCCCO[C@@H]1CN(C)C(=O)NC1CCCCC1
O=C(CCCl)NCCc1ccccc1
COc1ccc(S(=O)(=O)N(C)C[C@H]2Oc3ccc(NS(=O)(=O)c4c(C)noc4C)cc3CC(=O)N([C@H](C)CO)C[C@@H]2C)cc1
Cc1ccc(S(=O)(=O)NCC[C@H]2CC[C@@H](NS(=O)(=O)c3ccccc3Cl)[C@@H](CO)O2)cc1
C[C@H]1CN([C@@H](C)CO)S(=O)(=O)c2ccc(C#Cc3ccccc3)cc2O[C@H]1CN(C)S(=O)(=O)c1cn(C)cn1
CNC[C@H]1Oc2cc(C#CC(C)(C)O)ccc2S(=O)(=O)N([C@H](C)CO)C[C@@H]1C
